Screen size: about 150,000 compounds; about 540 (0.36%) showed an effect of 50% or more. Some of the results follow.
System: Plasmodium falciparum
Assay: Primary screen in NF54 nanoGlo assay, in single point, at 2uM, 72h; a lower Z score goes with more inhibition
Format: functional, Erythrocyte
Conditions: timepoint 72 hour

Which “% Inhibition” value does the source give for Cc1ccc(C(=O)N2CC(n3cnnc3C)C2)cn1 here?
Its value is 29%.

And the Z score?
Its Z score is -3.87.

How did the “% Inhibition” value turn out when C[C@H](NC(=O)C1CCN(S(C)(=O)=O)CC1)c1cccnc1 was run?
Its value is -4%.

And the Z score?
The Z score was 0.69.

What does the source list for CCOc1cccc(CN(C)C[C@H](O)C2CC2)c1OC(F)F?
% Inhibition: -5%; Z score: 0.61

With O=C(NCCOCc1ccc(Cl)cc1Cl)C1CCNCC1 as the compound, how does the “% Inhibition” value read?
Its value is -6%.

What about the Z score of the same compound?
Its Z score is 0.83.

For O=C1CCN(C(=O)CNC(=O)c2cccc(F)c2)CCN1, which “% Inhibition” value is on record?
The value was -21%.

And the Z score?
Its Z score is 2.61.

What does the source list for CCO[C@@H](C)c1nc(CN(Cc2ccco2)C2CC2)cs1?
% Inhibition: -6%; Z score: 0.77

COc1ccc(OC)c(CN2CCC([C@H](Cc3ccc(F)cc3F)N(C)C(=O)c3ccco3)CC2)c1 was tested. Which “% Inhibition” value did it give?
Its value is 4%.

And the Z score?
The Z score was -0.41.

For CO[C@H]1C[C@@H](O)C12CCN(C(=O)c1n[nH]c(-c3ccc(Cl)cc3)c1C)CC2, which “% Inhibition” value is on record?
Its value is 0%.

And the Z score?
The Z score was 0.02.

O=C(Cc1cccs1)N1CC2(C[C@H](N3CCOCC3)CO2)C1 was tested. Which “% Inhibition” value did it give?
The value was -17%.

And the Z score?
Its Z score is 1.99.

What does the source list for O=C(COc1ccc(Cl)cc1Cl)N1CCC(Oc2cccc3cccnc23)CC1?
% Inhibition: -16%; Z score: 3.05

How did the “% Inhibition” value turn out when C=CCCS(=O)(=O)N1CC(N2CCN(CC)CC2)C1 was run?
Its value is 18%.

What about the Z score of the same compound?
The Z score was -2.25.

Which results are given for Cc1nc(C(=O)N2C[C@@H](F)C[C@H]2CO)c(C)o1?
% Inhibition: -9%; Z score: 1.67

Which “% Inhibition” value does the source give for c1ccc2sc(-c3ccncc3)nc2c1 here?
Its value is -14%.

And the Z score?
Its Z score is 1.64.

c1coc(-c2noc(CN3CCc4nocc4C3)n2)c1 was tested. Which “% Inhibition” value did it give?
Its value is 3%.

And the Z score?
The Z score was -0.4.

CCNC(=O)CNc1nc(C(C)C)no1 was tested. Which “% Inhibition” value did it give?
The value was -7%.

What about the Z score of the same compound?
The Z score was 1.02.

How did the “% Inhibition” value turn out when CC1(C)C[C@@](C)(c2ccccc2)c2ccccc2N1S(=O)(=O)c1ccc(Br)cc1 was run?
Its value is 5%.

And the Z score?
Its Z score is -0.87.

With O=S1(=O)CCN(C2CCN(Cc3c(F)cccc3F)CC2)CC1 as the compound, how does the “% Inhibition” value read?
Its value is 33%.

What about the Z score of the same compound?
Its Z score is -4.46.

For c1ccc2c(-c3ncnc4ccccc34)ncnc2c1, which “% Inhibition” value is on record?
The value was 0%.

What about the Z score of the same compound?
The Z score was -0.03.

Which results are given for CC(C)(CC(=O)NCc1ccc[nH]1)CC(=O)c1ccccc1?
% Inhibition: -10%; Z score: 1.98

How did the “% Inhibition” value turn out when Cc1noc(C)c1C(C)(C)C(=O)N1CC2(CCC2)C[C@@H]1C was run?
The value was 1%.

And the Z score?
Its Z score is -0.09.

Which “% Inhibition” value does the source give for CCc1nc(NS(=O)(=O)c2cc(C)c(C)s2)no1 here?
The value was 2%.

What about the Z score of the same compound?
Its Z score is -0.26.

How did the “% Inhibition” value turn out when Cc1ccc(NC(=O)CN2CCCc3nc(C4CC4)ncc3C2=O)cc1 was run?
The value was -1%.

And the Z score?
The Z score was 0.19.

How did the “% Inhibition” value turn out when Cc1[nH]ccc1C(=O)N[C@@H](C)C(C)(F)F was run?
The value was 11%.

What about the Z score of the same compound?
The Z score was -1.66.

With CC(=O)N[C@H]1C[C@@H](c2cc(NCCCc3cccnc3)nc(C)n2)C1 as the compound, how does the “% Inhibition” value read?
Its value is -15%.

What about the Z score of the same compound?
The Z score was 2.91.

How did the “% Inhibition” value turn out when COc1ccccc1CNC(=O)CN1C[C@H](C)[C@@](O)(C2CCC2)C1 was run?
Its value is 4%.

And the Z score?
Its Z score is -0.7.

For CCc1ccc(-c2n[nH]c(=O)c3c2CCCC3)cc1S(=O)(=O)N1CCN(CC)CC1, which “% Inhibition” value is on record?
The value was 11%.

And the Z score?
Its Z score is -1.27.

What does the source list for CCn1c(=O)[nH]c2cc(-c3noc(-c4cc(OC)cc(OC)c4)n3)ccc21?
% Inhibition: -10%; Z score: 0.99

What does the source list for CCS(=O)(=O)NCCS(=O)(=O)N1CCO[C@H](C(C)(C)C)C1?
% Inhibition: -5%; Z score: 0.42

How did the “% Inhibition” value turn out when Cc1ccccc1NC(=O)Cn1c(=O)c(N2CCCC2)nc2ccccc21 was run?
The value was 5%.

What about the Z score of the same compound?
Its Z score is -0.64.

What does the source list for CN1CCN(c2ccnc(-c3noc(CCc4cnn(C)c4)n3)c2)CC1?
% Inhibition: -6%; Z score: 0.81

For Cc1ccc(NC(=O)N(Cc2ccccc2)Cc2c(-c3cccs3)n(C)c3ccccc23)c(C)c1, which “% Inhibition” value is on record?
Its value is -5%.

And the Z score?
The Z score was 0.67.

How did the “% Inhibition” value turn out when Cc1nc(C(C)C)oc1C(=O)N1CCC[C@H](c2nc3c(s2)CCCC3)C1 was run?
Its value is -3%.

What about the Z score of the same compound?
Its Z score is 0.5.

What does the source list for O=C(Nc1ccc(Oc2ccc(Cl)cc2)c(Cl)c1)c1cc2ccccc2cc1NS(=O)(=O)c1ccc(Cl)cc1?
% Inhibition: -3%; Z score: 0.24

What does the source list for COCCCn1c(=O)c2ccccc2n(CC(=O)N(C)c2ccccc2)c1=O?
% Inhibition: 37%; Z score: -4.14

How did the “% Inhibition” value turn out when Cc1ccc(F)cc1NC(=O)Cn1nc2c(Oc3ccc(C(C)C)cc3)nc3ccccc3n2c1=O was run?
The value was -3%.

And the Z score?
The Z score was 0.37.

How did the “% Inhibition” value turn out when COc1ccc(OCc2nc(-c3ccc4c(c3)CC(=O)N4C)c(C)s2)cc1 was run?
Its value is -2%.

And the Z score?
Its Z score is 0.36.

Nc1ccc(C(=O)N2CCC3(CC2)c2nc[nH]c2CCN3C(=O)C2CCC2)cn1 was tested. Which “% Inhibition” value did it give?
Its value is -9%.

What about the Z score of the same compound?
The Z score was 1.74.

For COc1nc2c(cc1CNC(=O)C1CCOCC1)C(=O)N(C1CCCC1)C2, which “% Inhibition” value is on record?
Its value is -20%.

And the Z score?
Its Z score is 2.59.

O=C1C[C@]2(C(=O)N(CC(=O)N3CCCC3)c3ccccc32)c2cnn(-c3ccccc3)c2N1 was tested. Which “% Inhibition” value did it give?
Its value is -6%.

What about the Z score of the same compound?
Its Z score is 0.6.

With CN(CCc1nc(-c2cccnc2)cs1)C(=O)OC(C)(C)C as the compound, how does the “% Inhibition” value read?
Its value is -9%.

What about the Z score of the same compound?
Its Z score is 1.39.

Which results are given for Cc1cccc(-n2nnnc2C2(Nc3ccc4c(c3)OCCO4)CCCC2)c1?
% Inhibition: 2%; Z score: -0.28

CN1CCCC(C)(C)[C@@H]1CNC(=O)c1cnnc(-c2ccccc2)c1 was tested. Which “% Inhibition” value did it give?
Its value is 6%.

And the Z score?
The Z score was -0.99.

What does the source list for COCCN1CC2(CCC1=O)CCN(C(=O)c1cnn(C(C)C)c1)CC2?
% Inhibition: -10%; Z score: 1.36

For CCC1(CO)CCN(C(=O)NCc2ccc(N(C)C)cc2C)CC1, which “% Inhibition” value is on record?
Its value is -6%.

What about the Z score of the same compound?
The Z score was 0.79.

With COc1ccc(OC)c(NC(=O)CN(CC(C)C)C(C)C)c1 as the compound, how does the “% Inhibition” value read?
Its value is -9%.

And the Z score?
The Z score was 1.24.

CCS(=O)(=O)NCC(=O)N1CCCc2sccc2C1 was tested. Which “% Inhibition” value did it give?
The value was -10%.

And the Z score?
The Z score was 1.85.

Which results are given for O=C(COCC(=O)N1CCCCC1)NCc1ccc2c(c1)OCO2?
% Inhibition: 9%; Z score: -1.17

Which results are given for C[C@H]1CCCN1C(=O)C1CCCCCC1?
% Inhibition: -7%; Z score: 0.78

How did the “% Inhibition” value turn out when CC(C)(C)n1ncn(Cc2ccn(C3CCCC3)n2)c1=O was run?
The value was -3%.

What about the Z score of the same compound?
The Z score was 0.51.

Which “% Inhibition” value does the source give for O=C1CC[C@H](NC(=O)c2cccc(C(F)F)c2F)C2(CCC2)N1 here?
The value was -6%.

What about the Z score of the same compound?
Its Z score is 0.92.

For COC(C)C(=O)N1CCCC(NS(=O)(=O)c2ccccc2)C1 (stereo unspecified), which “% Inhibition” value is on record?
The value was -9%.

And the Z score?
The Z score was 0.93.

Which results are given for Cc1cn2c(CCC(=O)N3C[C@H](C)Oc4ncccc43)csc2n1?
% Inhibition: -13%; Z score: 1.78

Which “% Inhibition” value does the source give for CC1=C[C@@H](CNCc2cccnc2)[C@H](C(C)C)C[C@H]1Cc1nc2cccc(C)c2[nH]1 here?
Its value is 8%.

What about the Z score of the same compound?
Its Z score is -1.25.

Source: ChEMBL document CHEMBL4888484, “Replenishing the malaria drug discovery pipeline: Screening and hit evaluation of the MMV Hit Generation Library 1 (HGL1) against asexual blood stage Plasmodium falciparum ,using a nano luciferase reporter read-out” (2022)
